Source: PubChem BioAssay AID588591 (National Center for Advancing Translational Sciences (NCATS), 2011)
Hit rate of the full screen: of about 390,000 compounds, about 4,700 (1.2%) were called active. The shares of active, inactive and inconclusive entries below differ from those in the screen. Calls follow the shape of the dose curve; as a rule, active = well fitted inhibition curve with a large enough effect; inconclusive = small, poorly fitted or top-dose-only effect, or another doubt; inactive = no such curve, though single readings can be large or run the other way. A potency beside an inconclusive call is a rough fit, not a confirmed value.

Molecular target: DNA polymerase eta (Homo sapiens) (UniProt Q9Y253)
Test: qHTS for Inhibitors of Polymerase Eta
Settings: recombinant Pol eta, fluorescent DNA replication assay; series mostly up to 114 µM
In short: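 Pol eta (10 nM) was preincubated with compounds for 15 min at room temperature, after which fluorescent replication substrate (50 nM final) was added to start the reaction. Fluorescence was read kinetically at 0 and 10 min.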
Potency is read from the fitted curve at half-maximal effect; tags tell the direction and shape of the fitted curve.

Chain of UniProt Q9Y253 (Q9Y253 whole entry, looked up): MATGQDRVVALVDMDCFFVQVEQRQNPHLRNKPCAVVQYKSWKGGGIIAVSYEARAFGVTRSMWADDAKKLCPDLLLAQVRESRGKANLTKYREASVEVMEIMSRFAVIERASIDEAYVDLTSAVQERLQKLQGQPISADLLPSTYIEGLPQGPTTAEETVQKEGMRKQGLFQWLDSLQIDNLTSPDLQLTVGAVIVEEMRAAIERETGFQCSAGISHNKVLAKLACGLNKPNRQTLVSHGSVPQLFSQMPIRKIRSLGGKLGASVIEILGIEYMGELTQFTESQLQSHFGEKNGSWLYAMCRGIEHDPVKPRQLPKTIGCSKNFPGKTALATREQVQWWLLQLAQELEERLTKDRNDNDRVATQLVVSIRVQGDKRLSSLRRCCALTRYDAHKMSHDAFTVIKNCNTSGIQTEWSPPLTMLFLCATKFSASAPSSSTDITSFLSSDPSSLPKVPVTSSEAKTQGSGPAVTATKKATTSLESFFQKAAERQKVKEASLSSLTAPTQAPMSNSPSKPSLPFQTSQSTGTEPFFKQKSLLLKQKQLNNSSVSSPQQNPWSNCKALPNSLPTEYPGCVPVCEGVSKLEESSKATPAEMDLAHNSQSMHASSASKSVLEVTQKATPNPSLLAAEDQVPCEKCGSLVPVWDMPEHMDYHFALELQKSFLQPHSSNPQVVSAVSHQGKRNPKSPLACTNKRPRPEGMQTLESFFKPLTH

Row | Compound | Potency
1 | O=C1Nc2c(Br)cccc2C1=O | inconclusive: 89.1 µM [inhibitor, single point]
2 | Cc1cccc(N2CCN(C(=O)CN3C(=O)COc4ccc(S(=O)(=O)N5CCCCCC5)cc43)CC2)c1C | inactive
3 | Cc1ccc(/C=c2\sc3n(c2=O)CN(c2cccc(Br)c2)CN=3)o1 | inconclusive: 25.1 µM [inhibitor, partial curve, poor fit]
4 | Cc1ccc(NC(=O)C(C)SCc2nc3sc(C)c(C)c3c(=O)[nH]2)nc1 (centres undefined) | inconclusive: 17.8 µM [inhibitor, full curve, poor fit]
5 | Cc1ccc(C(=O)O)cc1N=Cc1cc(Br)cc(Br)c1O | inconclusive: 28.2 µM [inhibitor, partial curve, poor fit]
6 | CC1(OC(=O)C2CCCC2)C(=O)C=C2C=C3CCCCN3C=C2C1=O (centres undefined) | inconclusive: 25.1 µM [inhibitor, full curve]
7 | Cc1cc(NC(=O)c2cccc(C(=O)Nc3cc(C)on3)n2)no1 | inconclusive: 22.4 µM [inhibitor, single point]
8 | CCc1cccc2c(C(=O)Cn3nnc(-c4ccc(OC)c(OC)c4)n3)c[nH]c12 | inconclusive: 28.2 µM [inhibitor, partial curve]
9 | O=C(Nc1ccon1)c1cc(-c2ccccc2)nc2ccccc12 | inconclusive: 39.8 µM [inhibitor, partial curve, poor fit]
10 | COCCn1c(SCC(=O)NCC(c2ccccc2)N(C)C)nc2sc3c(c2c1=O)CCC3 (centres undefined) | inconclusive: 31.6 µM [inhibitor, partial curve, poor fit]
11 | N#Cc1c(N)n(-c2cccc(C(=O)O)c2)c2nc3ccccc3nc12 | active: 39.8 µM
12 | Cc1ccc(S(=O)(=O)CCC(=O)OCC(=O)Nc2sccc2C#N)cc1 | active: 28.2 µM
13 | Cc1oc(-c2ccc(C(=O)NCc3ccc(Cl)cc3)cc2)nc1CS(=O)(=O)c1ccccc1 | inactive
14 | O=S(OCCN1CCOCC1)C(c1ccccc1)c1ccccc1 (centres undefined) | inactive
15 | O=C(O)/C=C/c1ccc(S(=O)(=O)NCc2ccco2)cc1 | active: 35.5 µM
16 | COc1ccc(-c2cc(C(=O)O)c3sc(N4CCCCC4)nc3n2)cc1OC | inconclusive: 17.8 µM [inhibitor, full curve, poor fit]
17 | O=C(/C=C/c1c(Cl)cccc1Cl)Nc1ccncc1 | inconclusive: 39.8 µM [inhibitor, partial curve]
18 | Cc1ccc(-c2nnc3ccc(SCC(=O)N4CCc5ccccc54)nn23)cc1 | inconclusive: 39.8 µM [inhibitor, single point]
19 | CCOC(=O)c1nn(-c2ccccc2)c(=O)c2c(NC(C)=O)scc12 | inactive
20 | O=C(N/N=C/c1ccc(F)cc1)c1ccccc1 | inactive
21 | O=C1CC(c2ccco2)Cc2nc(N3CCN(Cc4ccc5c(c4)OCO5)CC3)ncc21 (centres undefined) | inconclusive: 28.2 µM [inhibitor, partial curve, poor fit]
22 | CC(C)Cn1c2c(c(O)c(C(=O)Nc3ncccc3O)c1=O)CCCC2 | inconclusive: 39.8 µM [inhibitor, partial curve, poor fit]

Row | Compound | Potency
23 | CCOc1ccc(Cc2c(C)[nH]c3ccc(C(=O)O)cc3c2=S)cc1 | active: 50.1 µM
24 | CCc1cc(C(=O)N2CCN(S(=O)(=O)c3cc(C)ccc3C)CC2)sc1C | inconclusive: 56.2 µM [inhibitor, partial curve, poor fit]
25 | CCc1ccc(NC(=O)C(=O)NCC(c2cccnc2)N2CCN(c3ccc(F)cc3)CC2)cc1 (centres undefined) | inactive
26 | Cc1oc2nc(SCC(=O)NC3CCCCC3)nc(N)c2c1C | inactive
27 | Cc1ccc(OCC(=O)Nc2nnc(S(=O)(=O)N3c4ccccc4CC3C)s2)cc1 (centres undefined) | inconclusive: 89.1 µM [inhibitor, single point]
28 | O=C1/C(=C\c2ccc(O)c(O)c2)C(c2ccccc2)=NN1c1ccccc1 | active: 8.91 µM
29 | Cc1cccc(N/N=C/c2ccncc2)c1 | inactive
30 | COc1ccc(-c2nn3c(=O)cc(CN4CCN(C(=O)c5ccc(OC)c(OC)c5)CC4)nc3s2)cc1 | inactive
31 | Cc1ccc(C)c(Cn2nnc3c(=O)[nH]c(C(=O)Nc4ccc(F)cc4)nc32)c1 | inconclusive: 89.1 µM [inhibitor, partial curve, poor fit]
32 | COc1cc(/C=C2\CC/C(=C\c3cc(OC)c(O)c(OC)c3)C2=O)cc(OC)c1O | active: 1.78 µM
33 | CN(CC(=O)Nc1cccc(F)c1)C(=O)CSc1ccccc1 | inconclusive: 25.1 µM [inhibitor, partial curve]
34 | COc1ccc(NC(=O)COc2cccc(-n3cnnn3)c2)cc1Cl | inconclusive: 50.1 µM [inhibitor, partial curve]
35 | O=C(CCNC(=O)c1ccccc1)NCCCc1ccccc1 | inactive
36 | COCCNC(=O)CSc1nc(-c2cc(OC)c(OC)c(OC)c2)[nH]c1-c1ccc(Cl)cc1 | inactive
37 | CCS(=O)(=O)c1nn2c(N)c(/C=C3/C=CC(=O)C(OC)=C3)c(=O)nc2s1 | inconclusive: 35.5 µM [inhibitor, partial curve, poor fit]
38 | CCc1ccc(NC(=O)CN(c2ccc(C)cc2)S(=O)(=O)c2cccs2)cc1 | inactive
39 | O=S(=O)(c1ccccc1)c1nnn2c1nc(NC1CCCCC1)c1sccc12 | inactive
40 | CC(C(=O)Nc1ccc(O)c(C(=O)O)c1)N1C(=O)/C(=C/c2cccs2)SC1=S (centres undefined) | active: 79.4 µM
41 | Cc1cc(NS(=O)(=O)c2ccc(NC(=O)C(C)Oc3ccc4c(C)cc(=O)oc4c3)cc2)no1 (centres undefined) | inconclusive: 35.5 µM [inhibitor, partial curve, poor fit]
42 | CC(=O)c1ccccc1OCCOc1ncnc2sccc12 | inconclusive: 79.4 µM [inhibitor, partial curve, poor fit]
43 | Cc1oc2c(c1C(=O)NCc1cc(C(=O)O)co1)CCCC2 | inconclusive: 39.8 µM [inhibitor, partial curve, poor fit]
44 | CNc1ccccc1C(C)(C)c1cc(-c2cccc(Br)c2)no1 | inconclusive: 89.1 µM [inhibitor, single point]
